Data taken from PMC6919601, “Identification of Plasmodium dipeptidyl aminopeptidase allosteric inhibitors by high throughput screening” (PLoS ONE, 2019).
Screen size: about 110,000 compounds; about 230 (0.21%) showed an effect of 50% or more. The list shows a part of the results.

target: DPAP1 (Plasmodium falciparum, UniProt Q8IIJ9); assay: primary screen, percent inhibition; read by cleavage of a fluorogenic dipeptide substrate; higher = more effect of the substance; design: species or system P. falciparum D10 trophozoite lysates; single well
Sequence (Q8IIJ9 whole entry, looked up): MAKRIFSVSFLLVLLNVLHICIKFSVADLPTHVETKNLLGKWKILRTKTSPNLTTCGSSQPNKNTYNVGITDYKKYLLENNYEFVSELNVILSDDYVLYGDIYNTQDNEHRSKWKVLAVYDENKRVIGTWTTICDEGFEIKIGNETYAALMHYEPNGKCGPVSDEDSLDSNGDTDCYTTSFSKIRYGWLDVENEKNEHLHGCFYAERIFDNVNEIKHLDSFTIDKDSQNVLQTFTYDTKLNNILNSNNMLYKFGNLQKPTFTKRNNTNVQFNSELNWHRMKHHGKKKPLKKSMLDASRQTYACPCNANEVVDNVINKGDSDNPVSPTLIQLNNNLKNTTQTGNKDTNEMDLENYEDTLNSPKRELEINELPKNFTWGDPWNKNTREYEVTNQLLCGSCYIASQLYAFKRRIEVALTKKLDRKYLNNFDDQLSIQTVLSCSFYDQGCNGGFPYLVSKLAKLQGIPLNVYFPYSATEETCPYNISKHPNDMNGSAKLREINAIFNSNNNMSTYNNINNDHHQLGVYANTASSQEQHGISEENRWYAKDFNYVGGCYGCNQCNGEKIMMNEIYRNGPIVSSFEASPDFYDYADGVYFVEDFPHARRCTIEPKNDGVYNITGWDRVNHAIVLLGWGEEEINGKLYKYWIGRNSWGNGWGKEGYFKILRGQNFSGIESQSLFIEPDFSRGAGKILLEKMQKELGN
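Also: 30 min substrate incubation versus DMSO and 10 µM JCP410 controls.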

Row | Structure (SMILES) | % Inhibition @ 10 uM
1 | CSc1nc(-c2ccc(Cl)cc2)nn1S(=O)(=O)c1ccc(NC(C)=O)cc1 | 9.57%
2 | CCC(C)N1C(=O)S/C(=C/c2cc(OC)c3c(c2)OCO3)C1=O (stereo not shown) | 2.93%
3 | COC(=O)C1=CN(C(C)C)C=C(C(=O)OC)C1c1cccc(O)c1 | -8.88%
4 | CC1CCCC(NC(=O)CN(C)S(=O)(=O)c2cccc3cccnc23)C1C (stereo not shown) | -4.21%
5 | CCOC(=O)C1=NNC2C(=O)N(Cc3ccccc3)C(=O)C12 (stereo not shown) | 1.54%
6 | CCCC(=O)c1ccc(N2CCN(C(=O)CC)CC2)c(F)c1 | -2.83%
7 | COc1ccccc1Cc1nnc(C(=O)NCc2ccc3c(c2)OCO3)o1 | 6.13%
8 | O=C1CC(N2CCN(c3ccc4c(c3)OCO4)CC2)C(=O)N1c1ccc(Br)cc1 (stereo not shown) | 2.87%
9 | CCC(C)NC(=O)C1CC(c2ccc(OC)cc2)=NO1 (stereo not shown) | 1.62%
10 | O=C(NCCCN1CCOCC1)c1cnn(-c2ccccc2)c1-n1cccc1 | -1.58%
11 | Cc1ccc(C(=O)C2=C(O)C(=O)N(c3ccc(O)cc3)C2c2ccc(F)cc2)cc1 (stereo not shown) | -2.94%
12 | CCOC(=O)N1CCN(C(=O)CSc2nnc(COc3ccccc3)o2)CC1 | 4.05%
13 | COc1cc(/C=C2/NC(=O)NC2=O)c(Br)cc1OCc1ccccc1 | 3.8%
14 | CCN(CC)C(=O)C1CCCN(C2CCC(c3ccccc3)CC2)C1 (stereo not shown) | 1.42%
15 | COc1ccc(OC)c(NC(=O)c2ccc(Cn3nc(C)c(Cl)c3C)o2)c1 | -1.37%
16 | O=C(CN1C(=O)S/C(=C\c2cc(Cl)c(O)c(Cl)c2)C1=O)Nc1ccccc1 | 2.22%
17 | O=C(CSc1ccc(Cl)cc1)Nc1ccc(N2CCN(C(=O)c3cccs3)CC2)cc1 | 2.84%
18 | CN(C)c1ccc(C2Nc3ccccc3N=C3CC(c4cccs4)CC(O)=C32)cc1 (stereo not shown) | -4.12%
19 | CCCCNC(=O)c1c(C)cc(=O)oc1C | -4.06%
20 | COCCN1C(=O)/C(=C/c2cccs2)S/C1=N\c1ccccc1 | -7.1%
21 | CCCOc1ccc(C(=O)Nc2ccc(N3CCN(C)CC3)cc2)cc1 | -2.29%

Row | Structure (SMILES) | % Inhibition @ 10 uM
22 | COCCN1C(=O)/C(=C/c2ccc(O)c(Br)c2)S/C1=N\c1ccccc1 | 9.72%
23 | O=S(=O)(NC1CCCCC1)c1ccc(Sc2ccc(S(=O)(=O)NC3CCCCC3)cc2)cc1 | -2.55%
24 | Brc1ccc2ncnc(NCCc3ccccc3)c2c1 | -6.87%
25 | Cc1cc(-c2ccc(S(=O)(=O)NCc3ccc4c(c3)OCO4)s2)on1 | -0.695%
26 | Cc1cc(C(F)(F)F)nn1CC(=O)Nc1sc2c(c1C#N)CCC(C)C2 (stereo not shown) | 4.39%
27 | O=C(Nc1cccc(NC(=O)c2ccccc2Cl)c1)c1cccc([N+](=O)[O-])c1 | -2.03%
28 | Cc1[nH]c2ccccc2c1C1=CCN(S(=O)(=O)Cc2ccccc2)CC1 | -8.68%
29 | O=S(=O)(c1ccc2[nH]ccc2c1)N1CCCCCC1 | -3.53%
30 | Cc1nc(NCCc2c(C)[nH]c3ccccc23)c2c3c(sc2n1)CCC3 | 5.76%
31 | CCOc1ccc(CCNC(=O)C2CCCN2C(=O)OCc2ccccc2)cc1OCC (stereo not shown) | -0.458%
32 | COc1ccc(NC(=O)CN(c2cc(Cl)ccc2C)S(C)(=O)=O)cc1OC | -4.56%
33 | c1ccc2c(c1)c(SC1CCCCC1)nn1nnnc21 | 6.1%
34 | CCOc1ccc(C2c3c(oc4ccccc4c3=O)C(=O)N2c2ccccn2)cc1OC (stereo not shown) | -3.64%
35 | CC(C)(C)C1CCc2c(sc(NC(=O)c3cccnc3)c2C(N)=O)C1 (stereo not shown) | 1.64%
36 | COc1ccc(-c2cc(C(=O)NC3CCCCC3)c3ccccc3n2)cc1 | -0.13%
37 | CCOc1ccc(-n2c(-c3ccc(O)c(O)c3)cn3c4c(=O)n(C)c(=O)n(C)c4nc23)cc1 | 5.45%
38 | CC(NC(=O)c1ccccc1)c1cc2c(cc1Cl)OCCCO2 (stereo not shown) | 0.475%
39 | O=C1CC(c2cn(Cc3ccccc3)c3ccccc23)C(=O)N1c1ccccc1 (stereo not shown) | 1.24%
40 | CSc1ccc(CN2CCN(Cc3ccccc3)CC2)cc1 | -3.13%
41 | Cc1nc2ccccc2c(O)c1CN1CC2(C)CC1CC(C)(C)C2 (stereo not shown) | -4.93%
42 | COc1cc(-n2nnnc2SCC(=O)Nc2nnc(C)s2)c(OC)cc1Cl | -2.72%

Row | Structure (SMILES) | % Inhibition @ 10 uM
43 | O=C(O)CCNC(=O)/C(=C/C=C/c1ccccc1)NC(=O)c1ccccc1 | 0.587%
44 | CCOc1ccc(CCNC(=O)c2cc3cc4cc(OC)ccc4nc3o2)cc1OCC | -1.54%
45 | COc1cccc2c1Oc1ncccc1N(c1ccc(C(=O)O)s1)C2 | -0.0309%
46 | CCOc1cccc2cc(-c3nnc(NCc4ccc5c(c4)OCO5)s3)c(=O)oc12 | 10.6%
47 | COc1cc(OC)cc(C(=O)N2CCN(Cc3cc(OC)ccc3OC)CC2)c1 | 9.88%
48 | Cc1ccc(N2C(=O)CC(N3CCC(O)(c4ccc(Br)cc4)CC3)C2=O)cc1 (stereo not shown) | 13.7%
49 | CCOc1ccc(C(=O)C2=C(O)C(=O)N(Cc3cccnc3)C2c2ccc(F)cc2)cc1C (stereo not shown) | -1.93%
50 | Cc1cc(C)nc(NS(=O)(=O)c2ccc(NC(=O)C3(c4ccccc4)CCCC3)cc2)n1 | 1.89%
51 | Cc1ccc(CNC(=O)CN(C)S(=O)(=O)c2ccc3[nH]c4c(c3c2)CCCC4)cc1 | 5.14%
52 | Cc1ccc(NC(=O)COc2ccc(S(=O)(=O)NC3CCCCC3)cc2)c(C)c1 | -2.67%
53 | CC(C)c1ccc(/C=C/C(=O)Nc2cccc3ccccc23)cc1 | 1.96%
54 | Cc1ccc2[nH]c3c(c2c1)CCCC3CN (stereo not shown) | -3.6%
55 | Cc1nn(C(C)C(=O)NCCN(C)C)c(=O)c2nn(-c3ccccc3)c(C)c12 (stereo not shown) | -2.68%
56 | O=C(Nc1ccc2ccccc2c1)C1CC(=O)N(c2ccccc2)C1 (stereo not shown) | 0.76%
57 | Cc1ccn(CCC(=O)NCCc2nc3cc(F)ccc3[nH]2)n1 | 1.28%
58 | C#CCOc1c(Cl)cc(C2C(C#N)=C(N)Oc3[nH]nc(C)c32)cc1OC (stereo not shown) | -4.67%
59 | COc1ccccc1C(=O)Nc1nc2n(n1)C(c1ccccc1)C=C(C)N2 (stereo not shown) | -3.96%
60 | O=C(/C=C/c1ccc2c(c1)OCO2)N1CCOCC1 | -0.351%
61 | COc1ccccc1Nc1nc(Cl)nc(NC(C)(C)C)n1 | -1.76%
